The other results are listed elsewhere or left out.
Assays:
Test in all cases: glycan array binding signal (z-score within array); higher = stronger binding
Conditions in all cases: glycan notation: IUPAC condensed, linker removed
[1] = target: GlcNAc(b1-6)GalNAc
Method in brief: (§1)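 The binding signal is a Z-score computed within each array. Data were drawn from 3228 arrays in the Consortium for Functional Glycomics database, restricted to those with a known protein sequence. Scores were averaged over arrays of the same protein sequence at different concentrations or buffers, and over linkers, and negative values can be taken as non-binding.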

[2] = target: GlcNAc3Prop(b1-4)GlcNAc
Method in brief: as §1

[3] = target: GlcNAc6S(b1-3)Gal(b1-4)GlcNAc
Method in brief: as §1

[4] = target: Kdn(a2-3)Gal(b1-3)GalNAc
Method in brief: as §1

[5] = target: Kdn(a2-3)Gal(b1-3)GlcNAc
Method in brief: as §1

[6] = target: Kdn(a2-3)Gal(b1-4)Glc
Method in brief: as §1

[7] = target: Kdn(a2-3)Gal(b1-4)GlcNAc
Method in brief: as §1

[8] = target: Kdn(a2-3)Gal(b1-4)[Fuc(a1-3)]GlcNAc
Method in brief: as §1

[9] = target: Kdn(a2-6)Gal(b1-4)GlcNAc
Method in brief: as §1

[10] = target: Man(a1-2)Man(a1-2)Man(a1-3)Man
Method in brief: as §1

[11] = target: Man(a1-2)Man(a1-2)Man(a1-6)[Man(a1-3)]Man
Method in brief: as §1

[12] = target: Man(a1-2)Man(a1-3)Man
Method in brief: as §1

[13] = target: Man(a1-2)Man(a1-3)[Man(a1-2)Man(a1-6)]Man
Method in brief: as §1

[14] = target: Man(a1-2)Man(a1-3)[Man(a1-2)Man(a1-6)]Man(a1-6)[Man(a1-2)Man(a1-2)Man(a1-3)]Man
Method in brief: as §1

[15] = target: Man(a1-2)Man(a1-3)[Man(a1-2)Man(a1-6)]Man(a1-6)[Man(a1-2)Man(a1-2)Man(a1-3)]Man(b1-4)GlcNAc(b1-4)GlcNAc
Method in brief: as §1

[16] = target: Man(a1-2)Man(a1-3)[Man(a1-6)]Man(a1-6)[Man(a1-2)Man(a1-3)]Man(b1-4)GlcNAc(b1-4)GlcNAc
Method in brief: as §1

[17] = target: Man(a1-2)Man(a1-6)[Man(a1-3)]Man(a1-6)[Man(a1-2)Man(a1-2)Man(a1-3)]Man
Method in brief: as §1

[18] = target: Man(a1-2)Man(a1-6)[Man(a1-3)]Man(a1-6)[Man(a1-2)Man(a1-2)Man(a1-3)]Man(b1-4)GlcNAc(b1-4)GlcNAc
Method in brief: as §1

[19] = target: Man(a1-3)[Man(a1-6)]Man
Method in brief: as §1

[20] = target: Man(a1-3)[Man(a1-6)]Man(a1-6)[Man(a1-2)Man(a1-3)]Man(b1-4)GlcNAc(b1-4)GlcNAc
Method in brief: as §1

[21] = target: Man(a1-3)[Man(a1-6)]Man(a1-6)[Man(a1-3)]Man
Method in brief: as §1

[22] = target: Man(a1-3)[Man(a1-6)]Man(a1-6)[Man(a1-3)]Man(b1-4)GlcNAc(b1-4)GlcNAc
Method in brief: as §1

[23] = target: Man(a1-3)[Man(a1-6)]Man(b1-4)GlcNAc(b1-4)GlcNAc
Method in brief: as §1

[24] = target: Man(a1-6)Man
Method in brief: as §1

[25] = target: Man(b1-4)GlcNAc
Method in brief: as §1

[26] = target: Neu5Ac(a2-3)Gal
Method in brief: as §1

[27] = target: Neu5Ac(a2-3)Gal(b1-3)GalNAc
Method in brief: as §1

[28] = target: Neu5Ac(a2-3)Gal(b1-3)GalNAc(b1-3)Gal(a1-4)Gal(b1-4)Glc
Method in brief: as §1

[29] = target: Neu5Ac(a2-3)Gal(b1-3)GalNAc(b1-3)Gal(b1-4)GlcNAc
Method in brief: as §1

[30] = target: Neu5Ac(a2-3)Gal(b1-3)GalNAc(b1-4)[Neu5Ac(a2-3)]Gal(b1-4)Glc
Method in brief: as §1

[31] = target: Neu5Ac(a2-3)Gal(b1-3)GalNAc6S
Method in brief: as §1

[32] = target: Neu5Ac(a2-3)Gal(b1-3)GlcNAc
Method in brief: as §1

[33] = target: Neu5Ac(a2-3)Gal(b1-3)GlcNAc(b1-3)Gal(b1-3)GlcNAc
Method in brief: as §1

[34] = target: Neu5Ac(a2-3)Gal(b1-3)GlcNAc6S
Method in brief: as §1

[35] = target: Neu5Ac(a2-3)Gal(b1-3)[Fuc(a1-4)]GlcNAc
Method in brief: as §1

[36] = target: Neu5Ac(a2-3)Gal(b1-3)[Fuc(a1-4)]GlcNAc(b1-3)Gal(b1-3)[Fuc(a1-4)]GlcNAc
Method in brief: as §1

B1: Ficolin B (Rattus norvegicus), P57756 (protein)
chain: MVLGSAALFVLSLCVTELTLHAADTCPEVKVLDLEGSNKLTILQGCPGLPGALGPKGEAGAKGDRGESGLPGHPGKAGPTGPKGDRGEKGVRGEKGDTGPSQSCATGPRTCKELLTRGYFLTGWYTIYLPDCRPLTVLCDMDTDGGGWTVFQRRIDGTVDFFRDWTSYKQGFGSQLGEFWLGNDNIHALTTQGTNELRVDLADFDGNHDFAKYSSFQIQGEAEKYKLILGNFLGGGAGDSLTSQNNMLFSTKDQDNDQGSSNCAVRYHGAWWYSDCHTSNLNGLYLRGLHKSYANGVNWKSWKGYNYSYKVSEMKVRLI
glycan array binding signal (z-score) [1]: -0.086 | glycan array binding signal (z-score) [2]: -0.193 | glycan array binding signal (z-score) [3]: 0.311 | glycan array binding signal (z-score) [4]: -0.06 | glycan array binding signal (z-score) [5]: 0.074 | glycan array binding signal (z-score) [6]: -0.226 | glycan array binding signal (z-score) [7]: -0.219 | glycan array binding signal (z-score) [8]: -0.138 | glycan array binding signal (z-score) [9]: -0.209 | glycan array binding signal (z-score) [10]: -0.074 | glycan array binding signal (z-score) [11]: -0.244 | glycan array binding signal (z-score) [12]: -0.059 | glycan array binding signal (z-score) [13]: -0.21 | glycan array binding signal (z-score) [14]: -0.232 | glycan array binding signal (z-score) [15]: -0.224 | glycan array binding signal (z-score) [16]: -0.169 | glycan array binding signal (z-score) [17]: -0.212 | glycan array binding signal (z-score) [18]: -0.18 | glycan array binding signal (z-score) [19]: -0.166 | glycan array binding signal (z-score) [20]: -0.182 | glycan array binding signal (z-score) [21]: -0.217 | glycan array binding signal (z-score) [22]: -0.204 | glycan array binding signal (z-score) [23]: -0.19 | glycan array binding signal (z-score) [24]: -0.229 | glycan array binding signal (z-score) [25]: -0.113 | glycan array binding signal (z-score) [26]: -0.193 | glycan array binding signal (z-score) [27]: -0.176 | glycan array binding signal (z-score) [28]: -0.152 | glycan array binding signal (z-score) [29]: -0.217 | glycan array binding signal (z-score) [30]: 1.4 | glycan array binding signal (z-score) [31]: -0.212 | glycan array binding signal (z-score) [32]: 0.043 | glycan array binding signal (z-score) [33]: -0.071 | glycan array binding signal (z-score) [34]: -0.232 | glycan array binding signal (z-score) [35]: -0.213 | glycan array binding signal (z-score) [36]: -0.015
